# Some of the results follow. Sequences were assembled here from the parent chain. Values near 0.05 are background.
# B1: TEV protease; numbered along this chain (parent)
# chain: MGESLFKGPRDYNPISSSICHLTNESDGHTTSLYGIGFGPFIITNKHLFRRNNGTLVVQSLHGVFKVKDTTTLQQHLVDGRDMIIIRMPKDFPPFPQKLKFREPQREERICLVTTNFQTKSMSSMVSDTSCTFPSGDGIFWKHWIQTKDGQCGSPLVSTRDGFIVGIHSASNFTNTNNYFTSVPKNFMELLTNQEAQQWVSGWRLNADSVLWGGHKVFMVKPEEPFQPVKEATQL
# Variants of: B1
# Test: raw area under fraction-flipped curve 0-4 h after induction (AUC4h, not background-subtracted), DNA-recorder readout of cleavage of the substrate (dimensionless); higher = more cleavage of the substrate by the protease variant
# Settings: temperature: 34 °C; time window: 0-4 h after rhamnose induction
# 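Also: Bxb1 expression induced with 0.2% (w/v) L-rhamnose at OD600 near 0.5, cultures sampled hourly, flipped fraction per protease–substrate barcode pair counted by paired-end Illumina sequencing.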
Variant,area with substrate ECLYFQS,area with substrate EDLYFQS,area with substrate EELYFQS,area with substrate EFLYFQS,area with substrate EGLYFQS,area with substrate EHLYFQS,area with substrate EILYFQS,area with substrate EKLYFQS,area with substrate EMLYFQS,area with substrate EPLYFQS
MGESLFKGPRDYNPISSSICHLTNESDGHTTSLYGIGFGPFIITNKHLFRRNNGTLVVQSLHGVFKVKDTTTLQQHLVDGRDMIIIRMPKDFPPFPQKLKFREPQREERFCLVTTNFQTKSMSSMVSDTSCTFPSGDGIFWKHWIQTKDGQCGSPLVSTRDGFIVGIHSASNFTNTNNYFTSVPKNFMELLTNQEAQQWVSGWRLNADSVLWGGHKVFMVKPEEPFQPVKEATQL [I110F],0.0619,0.0535,0.0347,0.0677,0.0528,0.0541,0.0617,0.0521,0.0452,0.0605
MGESLFKGPRDYNPISSSICHLTNESDGHTTSLYGIGFGPFIITNKHLFRRNNGTLVVQSLHGVFKVKDTTTLQQHLVDGRDMIIIRMPKDFPPFPQKLKFREPQREERRCLVTTNFQTKSMSSMVSDTSCTFPSGDGIFWKHWIQTKDGQCGSPLVSTRDGFIVGIHSASNFTNTNNYFTSVPKNFMELLTNQEAQQWVSGWRLNADSVLWGGHKVFMVKPEEPFQPVKEATQL [I110R],0.0467,0.0618,0.0625,,0.058,,0.0411,0.0494,,
MGESLFKGPRDYNPISSSICHLTNESDGHTTSLYGIGFGPFIITNKHLFRRNNGTLVVQSLHGVFKVKDTTTLQQHLVDGRDMIIIRMPKDFPPFPQKLKFREPQREERICLKTTNFQTKSMSSMVSDTSCTFPSGDGIFWKHWIQTKDGQCGSPLVSTRDGFIVGIHSASNFTNTNNYFTSVPKNFMELLTNQEAQQWVSGWRLNADSVLWGGHKVFMVKPEEPFQPVKEATQL [V113K],0.0607,,,,,,,0.0809,0.0824,0.0752
MGESLFKGPRDYNPISSSICHLTNESDGHTTSLYGIGFGPFIITNKHLFRRNNGTLVVQSLHGVFKVKDTTTLQQHLVDGRDMIIIRMPKDFPPFPQKLKFREPQREERICLWTTNFQTKSMSSMVSDTSCTFPSGDGIFWKHWIQTKDGQCGSPLVSTRDGFIVGIHSASNFTNTNNYFTSVPKNFMELLTNQEAQQWVSGWRLNADSVLWGGHKVFMVKPEEPFQPVKEATQL [V113W],0.0743,0.117,,0.118,,,0.0479,0.112,0.0948,
MGESLFKGPRDYNPISSSICHLTNESDGHTTSLYGIGFGPFIITNKHLFRRNNGTLVVQSLHGVFKVKDTTTLQQHLVDGRDMIIIRMPKDFPPFPQKLKFREPQREERICLVLTNFQTKSMSSMVSDTSCTFPSGDGIFWKHWIQTKDGQCGSPLVSTRDGFIVGIHSASNFTNTNNYFTSVPKNFMELLTNQEAQQWVSGWRLNADSVLWGGHKVFMVKPEEPFQPVKEATQL [T114L],0.115,,,,0.095,,,,,0.145
MGESLFKGPRDYNPISSSICHLTNESDGHTTSLYGIGFGPFIITNKHLFRRNNGTLVVQSLHGVFKVKDTTTLQQHLVDGRDMIIIRMPKDFPPFPQKLKFREPQREERICLVNTNFQTKSMSSMVSDTSCTFPSGDGIFWKHWIQTKDGQCGSPLVSTRDGFIVGIHSASNFTNTNNYFTSVPKNFMELLTNQEAQQWVSGWRLNADSVLWGGHKVFMVKPEEPFQPVKEATQL [T114N],0.19,,0.129,,,,,,0.125,
MGESLFKGPRDYNPISSSICHLTNESDGHTTSLYGIGFGPFIITNKHLFRRNNGTLVVQSLHGVFKVKDTTTLQQHLVDGRDMIIIRMPKDFPPFPQKLKFREPQREERICLVTKNFQTKSMSSMVSDTSCTFPSGDGIFWKHWIQTKDGQCGSPLVSTRDGFIVGIHSASNFTNTNNYFTSVPKNFMELLTNQEAQQWVSGWRLNADSVLWGGHKVFMVKPEEPFQPVKEATQL [T115K],0.107,0.11,0.134,,0.114,0.125,,0.105,0.1,
MGESLFKGPRDYNPISSSICHLTNESDGHTTSLYGIGFGPFIITNKHLFRRNNGTLVVQSLHGVFKVKDTTTLQQHLVDGRDMIIIRMPKDFPPFPQKLKFREPQREERICLVTQNFQTKSMSSMVSDTSCTFPSGDGIFWKHWIQTKDGQCGSPLVSTRDGFIVGIHSASNFTNTNNYFTSVPKNFMELLTNQEAQQWVSGWRLNADSVLWGGHKVFMVKPEEPFQPVKEATQL [T115Q],0.109,0.117,0.137,,0.104,,0.118,0.119,0.136,

# Same assay, conditions: temperature: 34 °C; time window: 0-4 h after rhamnose induction
Variant,area with substrate EQLYFQS,area with substrate ERLYFQS,area with substrate ESLYFQS,area with substrate EWLYFQS,area with substrate ELLYFQS,area with substrate EVLYFQS,area with substrate ETLYFQS,area with substrate EYLYFQS
MGESLFKGPRDYNPISSSICHLTNESDGHTTSLYGIGFGPFIITNKHLFRRNNGTLVVQSLHGVFKVKDTTTLQQHLVDGRDMIIIRMPKDFPPFPQKLKFREPQREERFCLVTTNFQTKSMSSMVSDTSCTFPSGDGIFWKHWIQTKDGQCGSPLVSTRDGFIVGIHSASNFTNTNNYFTSVPKNFMELLTNQEAQQWVSGWRLNADSVLWGGHKVFMVKPEEPFQPVKEATQL [I110F],0.0546,0.0528,0.0572,0.0501,,,,
MGESLFKGPRDYNPISSSICHLTNESDGHTTSLYGIGFGPFIITNKHLFRRNNGTLVVQSLHGVFKVKDTTTLQQHLVDGRDMIIIRMPKDFPPFPQKLKFREPQREERRCLVTTNFQTKSMSSMVSDTSCTFPSGDGIFWKHWIQTKDGQCGSPLVSTRDGFIVGIHSASNFTNTNNYFTSVPKNFMELLTNQEAQQWVSGWRLNADSVLWGGHKVFMVKPEEPFQPVKEATQL [I110R],0.0417,0.0548,0.0542,,0.0632,0.0392,,
MGESLFKGPRDYNPISSSICHLTNESDGHTTSLYGIGFGPFIITNKHLFRRNNGTLVVQSLHGVFKVKDTTTLQQHLVDGRDMIIIRMPKDFPPFPQKLKFREPQREERICLKTTNFQTKSMSSMVSDTSCTFPSGDGIFWKHWIQTKDGQCGSPLVSTRDGFIVGIHSASNFTNTNNYFTSVPKNFMELLTNQEAQQWVSGWRLNADSVLWGGHKVFMVKPEEPFQPVKEATQL [V113K],,,0.0572,,,0.0676,0.0687,0.0672
MGESLFKGPRDYNPISSSICHLTNESDGHTTSLYGIGFGPFIITNKHLFRRNNGTLVVQSLHGVFKVKDTTTLQQHLVDGRDMIIIRMPKDFPPFPQKLKFREPQREERICLWTTNFQTKSMSSMVSDTSCTFPSGDGIFWKHWIQTKDGQCGSPLVSTRDGFIVGIHSASNFTNTNNYFTSVPKNFMELLTNQEAQQWVSGWRLNADSVLWGGHKVFMVKPEEPFQPVKEATQL [V113W],,0.0729,,0.0808,,0.0772,0.0873,0.0919
MGESLFKGPRDYNPISSSICHLTNESDGHTTSLYGIGFGPFIITNKHLFRRNNGTLVVQSLHGVFKVKDTTTLQQHLVDGRDMIIIRMPKDFPPFPQKLKFREPQREERICLVLTNFQTKSMSSMVSDTSCTFPSGDGIFWKHWIQTKDGQCGSPLVSTRDGFIVGIHSASNFTNTNNYFTSVPKNFMELLTNQEAQQWVSGWRLNADSVLWGGHKVFMVKPEEPFQPVKEATQL [T114L],0.136,0.108,0.111,0.123,,,,0.111
MGESLFKGPRDYNPISSSICHLTNESDGHTTSLYGIGFGPFIITNKHLFRRNNGTLVVQSLHGVFKVKDTTTLQQHLVDGRDMIIIRMPKDFPPFPQKLKFREPQREERICLVNTNFQTKSMSSMVSDTSCTFPSGDGIFWKHWIQTKDGQCGSPLVSTRDGFIVGIHSASNFTNTNNYFTSVPKNFMELLTNQEAQQWVSGWRLNADSVLWGGHKVFMVKPEEPFQPVKEATQL [T114N],,0.197,0.087,,,,,
MGESLFKGPRDYNPISSSICHLTNESDGHTTSLYGIGFGPFIITNKHLFRRNNGTLVVQSLHGVFKVKDTTTLQQHLVDGRDMIIIRMPKDFPPFPQKLKFREPQREERICLVTKNFQTKSMSSMVSDTSCTFPSGDGIFWKHWIQTKDGQCGSPLVSTRDGFIVGIHSASNFTNTNNYFTSVPKNFMELLTNQEAQQWVSGWRLNADSVLWGGHKVFMVKPEEPFQPVKEATQL [T115K],0.128,0.113,0.0963,,,,,
MGESLFKGPRDYNPISSSICHLTNESDGHTTSLYGIGFGPFIITNKHLFRRNNGTLVVQSLHGVFKVKDTTTLQQHLVDGRDMIIIRMPKDFPPFPQKLKFREPQREERICLVTQNFQTKSMSSMVSDTSCTFPSGDGIFWKHWIQTKDGQCGSPLVSTRDGFIVGIHSASNFTNTNNYFTSVPKNFMELLTNQEAQQWVSGWRLNADSVLWGGHKVFMVKPEEPFQPVKEATQL [T115Q],0.0954,0.0938,0.132,0.0974,0.107,0.125,0.143,0.121
